Test results reported in the RNAGym collection of RNA variant scans (doi:10.1093/nar/gkz1192).
Read counts are not given, so values of variants with three or more changes are uncertain.

B1: CPEB3 Ribozyme (parent)
chain: UAACAGGGGGCCACAGCAGAAGCGUUCACGUCGCAGCCCCUGUCAGAUUCUGGUGAAUCUGCGAAUUCUGCUGUAUAUCUC

Variants of: B1
Assay: self-cleavage, relative activity (ratio to wild type); higher = more cleavage; in vitro, sequencing
Method in brief: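 CPEB3 self-cleaving ribozyme mutant libraries were made by rounds of error-prone PCR, barcoded, and transcribed in vitro with T7 RNA polymerase for 5 hours at 37°C. Cleavage occurred during transcription and a 15 min DNase I step before EDTA stop. RNAs were reverse transcribed with template switching and Illumina-sequenced, with DNA sequencing mapping barcodes to variants. Relative activity is the variant's cleaved/total read fraction divided by wild type's (minimum 5 reads), averaged across three batches.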

Variant | self-cleavage
UAACAGGGGGCCACAGCAGAAGCGUUCACGUCGCAGCCCCUGCCAGAUUCUGGUGGAUCUGCGAGUUCCGCUGUAUAUCUC [U43C A56G A65G U69C] | 0.2
UAACAGGGGGCCACAGCAGAAGCGUUCACGUCGCAGCCCCUGCCAGAUUCUGGUGGAUCUGCGAAUUCUGCUGUAUACCUC [U43C A56G U78C] | 0.47
UAACAGGGGGCCACAGCAGAAGCGUUCACGUCGCAGCCCCUGCCAGAUUCUGGUGUAUCUGCGAGUUCCGCUGUAUAUCUC [U43C A56U A65G U69C] | 0.09
UAACAGGGGGCCACAGCAGAAGCGUUCACGUCGCAGCCCCUGCCAGAUUCUGGUGUAUCUGCGAAGUCUGCUGCAUAUCCC [U43C A56U U66G U74C U80C] | 0.11
UAACAGGGGGCCACAGCAGAAGCGUUCACGUCGCAGCCCCUGCCAGAUUCUGGUGUAUCUGCGAAUUCUGCGGUAUAUCUC [U43C A56U U72G] | 0.38
UAACAGGGGGCCACAGCAGAAGCGUUCACGUCGCAGCCCCUGCCAGAUUCUGGUGAGUCUGCGGAUUCUGCCGUAUAUCUC [U43C A57G A64G U72C] | 0.32
UAACAGGGGGCCACAGCAGAAGCGUUCACGUCGCAGCCCCUGCCAGAUUCUGGUGAGCCUGCGAAUUCCGCUGUAUAUCUC [U43C A57G U58C U69C] | 0.21
UAACAGGGGGCCACAGCAGAAGCGUUCACGUCGCAGCCCCUGCCAGAUUCUGGUGAGUCUGCGAAUUCAGCCGUAUAUCUC [U43C A57G U69A U72C] | 0.14
UAACAGGGGGCCACAGCAGAAGCGUUCACGUCGCAGCCCCUGCCAGAUUCUGGUGAAUCUGCGGAUUCCGCUGUAUAUCUC [U43C A64G U69C] | 0.14
UAACAGGGGGCCACAGCAGAAGCGUUCACGUCGCAGCCCCUGCCAGAUUCUGGUGAAUCUGCGGAUUCUGCCGUUUAUCUC [U43C A64G U72C A75U] | 0.44
UAACAGGGGGCCACAGCAGAAGCGUUCACGUCGCAGCCCCUGCCAGAUUCUGGUGAAUCUGCGGAUUCUGCUGUAAAUCUC [U43C A64G U76A] | 0.54
UAACAGGGGGCCACAGCAGAAGCGUUCACGUCGCAGCCCCUGCCAGAUUCUGGUGAAUCUGCGUAUUCCGCUGUAUAUCUC [U43C A64U U69C] | 0.1
UAACAGGGGGCCACAGCAGAAGCGUUCACGUCGCAGCCCCUGCCAGAUUCUGGUGAAUCUGCGAUUUCUGCCGUAUAUCUC [U43C A65U U72C] | 0.18
UAACAGGGGGCCACAGCAGAAGCGUUCACGUCGCAGCCCCUGCCAGAUUAUGAUGAAUCUGCGAAUUCAGCUGUAUAGCUC [U43C C50A G53A U69A U78G] | 0.26
UAACAGGGGGCCACAGCAGAAGCGUUCACGUCGCAGCCCCUGCCAGAUUUUGGUGAAACUGCGGAUUCUGCUGUACGUCUC [U43C C50U U58A A64G U76C A77G] | 0.07
UAACAGGGGGCCACAGCAGAAGCGUUCACGUCGCAGCCCCUGCCAGAUUUUGGUGAAACUGCGAAUUCCGCUGUACAUCUC [U43C C50U U58A U69C U76C] | 0.08
UAACAGGGGGCCACAGCAGAAGCGUUCACGUCGCAGCCCCUGCCAGAUUCUAGUGAAUCUGCGUAUUCUGCUGUAUAUCUC [U43C G52A A64U] | 0.38

Variant | self-cleavage
UAACAGGGGGCCACAGCAGAAGCGUUCACGUCGCAGCCCCUGCCAGAUUCUGGUGAAUCUCCGAAUUCUGCUGUAUAUUUC [U43C G61C C79U] | 0.21
UAACAGGGGGCCACAGCAGAAGCGUUCACGUCGCAGCCCCUGCCAGAUUCUGGUGAAUCUGCUAAUUCUGCUGGAUAUCCC [U43C G63U U74G U80C] | 1.11
UAACAGGGGGCCACAGCAGAAGCGUUCACGUCGCAGCCCCUGCCAGAAUCUGGUGAGUCUGCGAAUUCUGCUGUAUUUCUC [U43C U48A A57G A77U] | 0.17
UAACAGGGGGCCACAGCAGAAGCGUUCACGUCGCAGCCCCUGCCAGACUCUGUUGAAUCUGCGAAUUCUGCUGUAUAUCUC [U43C U48C G53U] | 0.62
UAACAGGGGGCCACAGCAGAAGCGUUCACGUCGCAGCCCCUGCCAGACUCUGGUGAAUCUGCGAAUACUGCUGCAUAUCUC [U43C U48C U67A U74C] | 0.06
UAACAGGGGGCCACAGCAGAAGCGUUCACGUCGCAGCCCCUGCCAGAUACUGGUGAAUCUGCGAAUUCAGCUGUAUAUCUC [U43C U49A U69A] | 0.13
UAACAGGGGGCCACAGCAGAAGCGUUCACGUCGCAGCCCCUGCCAGAUCCUGGUGAAUCCGCGAAUUCUGCUGUAAAUCUC [U43C U49C U60C U76A] | 0.09
UAACAGGGGGCCACAGCAGAAGCGUUCACGUCGCAGCCCCUGCCAGAUUCAGGUGAAUCUGCGAAUUCUUCUGUAUAUCUC [U43C U51A G70U] | 0.16
UAACAGGGGGCCACAGCAGAAGCGUUCACGUCGCAGCCCCUGCCAGAUUCCUGUGAAUCUGCGAAUUCAGCCGUAUAUCUC [U43C U51C G52U U69A U72C] | 0.43
UAACAGGGGGCCACAGCAGAAGCGUUCACGUCGCAGCCCCUGCCAGAUUCGGGUGUAUCUGCGAAUUCUGCUGUAUAUCCC [U43C U51G A56U U80C] | 0.21
UAACAGGGGGCCACAGCAGAAGCGUUCACGUCGCAGCCCCUGCCAGAUUCGGGUGAAUCUGCGAAUUAUGCUGUAUAUCUC [U43C U51G C68A] | 0.21
UAACAGGGGGCCACAGCAGAAGCGUUCACGUCGCAGCCCCUGCCAGAUUCUGGAGAAUCCGCGAAUUCUGCUGUAUAUCUC [U43C U54A U60C] | 0.15
UAACAGGGGGCCACAGCAGAAGCGUUCACGUCGCAGCCCCUGCCAGAUUCUGGAGAAUCUGCGAAUUCUGCUGUAUACGUC [U43C U54A U78C C79G] | 0.63
UAACAGGGGGCCACAGCAGAAGCGUUCACGUCGCAGCCCCUGCCAGAUUCUGGCGAAUCUGCGACUCCUGCUGUAUAUCUC [U43C U54C A65C U67C] | 0.07
UAACAGGGGGCCACAGCAGAAGCGUUCACGUCGCAGCCCCUGCCAGAUUCUGGCGAAUCCGCGAAUUCUGCUAUAUAUCCC [U43C U54C U60C G73A U80C] | 0.25
UAACAGGGGGCCACAGCAGAAGCGUUCACGUCGCAGCCCCUGCCAGAUUCUGGCGAAUCUGCGAAUUCUGCUGUAUAUCAC [U43C U54C U80A] | 0.46
UAACAGGGGGCCACAGCAGAAGCGUUCACGUCGCAGCCCCUGCCAGAUUCUGGGGAAUCUGCGAAUUCUGCUGUAUACCUC [U43C U54G U78C] | 0.33
